Test results from PMC12671805.
These are yes or no findings as the source states them, for the method shown. In cells and extracts the contact can be indirect. Some results given as binding are weak or reduced against the parent protein; the word gives no strength. For part of these data: Where a sequence is shown, tags or fusion partners need not be part of it.

Amino acid sequences for entries named in this document (tags omitted). Residues count along the entry.
UniProt Q01097, residues 27-1482: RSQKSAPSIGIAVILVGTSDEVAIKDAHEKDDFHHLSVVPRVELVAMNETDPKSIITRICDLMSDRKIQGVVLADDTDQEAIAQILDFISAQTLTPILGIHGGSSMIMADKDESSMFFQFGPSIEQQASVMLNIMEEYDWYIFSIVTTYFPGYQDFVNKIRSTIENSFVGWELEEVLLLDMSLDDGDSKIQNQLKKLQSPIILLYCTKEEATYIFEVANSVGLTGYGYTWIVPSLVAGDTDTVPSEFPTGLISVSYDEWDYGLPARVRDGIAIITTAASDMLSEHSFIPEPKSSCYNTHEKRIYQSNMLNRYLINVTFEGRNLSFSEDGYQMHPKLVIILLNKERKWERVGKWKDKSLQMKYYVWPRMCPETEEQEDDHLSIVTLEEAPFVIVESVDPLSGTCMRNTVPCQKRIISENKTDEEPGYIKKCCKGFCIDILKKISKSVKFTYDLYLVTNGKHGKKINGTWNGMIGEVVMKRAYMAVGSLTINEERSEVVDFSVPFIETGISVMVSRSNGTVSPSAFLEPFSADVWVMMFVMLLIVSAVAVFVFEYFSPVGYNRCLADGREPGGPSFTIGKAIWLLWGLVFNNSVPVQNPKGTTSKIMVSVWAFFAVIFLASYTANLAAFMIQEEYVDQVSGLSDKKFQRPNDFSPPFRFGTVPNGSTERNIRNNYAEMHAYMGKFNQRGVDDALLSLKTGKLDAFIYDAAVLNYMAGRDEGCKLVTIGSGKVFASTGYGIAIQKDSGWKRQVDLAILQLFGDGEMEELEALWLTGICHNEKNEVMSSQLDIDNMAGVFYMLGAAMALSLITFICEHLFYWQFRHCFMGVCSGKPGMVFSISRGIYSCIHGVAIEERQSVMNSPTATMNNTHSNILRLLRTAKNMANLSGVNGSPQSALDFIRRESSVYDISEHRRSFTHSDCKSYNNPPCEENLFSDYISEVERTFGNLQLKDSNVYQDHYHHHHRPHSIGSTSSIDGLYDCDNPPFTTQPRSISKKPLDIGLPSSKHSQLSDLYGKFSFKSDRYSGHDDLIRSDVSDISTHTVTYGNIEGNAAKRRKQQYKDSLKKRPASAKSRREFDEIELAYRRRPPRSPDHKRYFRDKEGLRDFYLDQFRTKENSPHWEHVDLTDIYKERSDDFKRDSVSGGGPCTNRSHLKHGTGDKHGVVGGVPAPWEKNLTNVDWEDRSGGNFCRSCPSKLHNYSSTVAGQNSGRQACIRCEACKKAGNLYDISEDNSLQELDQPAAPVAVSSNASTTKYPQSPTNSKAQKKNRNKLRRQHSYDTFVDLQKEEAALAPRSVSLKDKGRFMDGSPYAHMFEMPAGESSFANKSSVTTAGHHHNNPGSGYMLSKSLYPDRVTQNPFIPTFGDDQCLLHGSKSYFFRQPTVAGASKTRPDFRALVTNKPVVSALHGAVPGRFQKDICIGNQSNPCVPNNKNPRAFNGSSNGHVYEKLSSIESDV

How the values were obtained:
[1] = biological target: T1, Ras and Rab interactor 1 (RIN1), endogenous (mouse (endogenous in spinal cord dorsal horn)) (UniProt Q921Q7); assay: proximity ligation; Duolink in situ fluorescence PLA on mouse spinal sections with EGFP-labelled SOM+ interneurons; mouse anti-RIN1 with rabbit anti-GluN2A or rabbit anti-GluN2B antibody
T1 sequence: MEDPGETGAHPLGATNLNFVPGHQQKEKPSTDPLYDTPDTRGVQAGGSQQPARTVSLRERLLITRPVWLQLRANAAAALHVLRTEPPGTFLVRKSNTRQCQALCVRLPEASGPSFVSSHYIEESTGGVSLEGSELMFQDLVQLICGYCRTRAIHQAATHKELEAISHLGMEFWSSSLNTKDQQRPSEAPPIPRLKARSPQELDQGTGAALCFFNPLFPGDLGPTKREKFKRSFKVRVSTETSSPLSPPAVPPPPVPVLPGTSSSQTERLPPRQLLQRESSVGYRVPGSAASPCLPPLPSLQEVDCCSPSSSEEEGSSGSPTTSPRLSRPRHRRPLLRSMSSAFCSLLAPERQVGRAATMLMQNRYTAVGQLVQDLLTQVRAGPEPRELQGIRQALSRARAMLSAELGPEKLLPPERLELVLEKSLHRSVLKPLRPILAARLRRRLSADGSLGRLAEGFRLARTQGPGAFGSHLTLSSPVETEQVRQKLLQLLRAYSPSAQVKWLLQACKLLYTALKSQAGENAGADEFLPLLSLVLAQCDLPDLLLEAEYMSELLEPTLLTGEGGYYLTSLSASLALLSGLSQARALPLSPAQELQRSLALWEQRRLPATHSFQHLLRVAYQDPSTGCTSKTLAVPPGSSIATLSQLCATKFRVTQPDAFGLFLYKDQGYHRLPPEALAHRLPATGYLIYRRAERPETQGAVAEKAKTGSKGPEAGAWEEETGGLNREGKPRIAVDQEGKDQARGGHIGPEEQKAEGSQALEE

[2] = biological target: T2, GST fusion protein of wild-type RIN1 (mouse) (UniProt Q921Q7); assay: pull-down; GST fusion proteins bound to glutathione agarose beads, incubated with spinal cord lysate supernatant in RIPA buffer for 4 h at 4°C; immunoblot; only the target purified
T2 sequence: T1 sequence

[3] = biological target: T3, GST-RIN1(1-221), a GST-fused N-terminal region encompassing the SH2 domain (mouse) (UniProt Q921Q7); assay: as above
T3 sequence: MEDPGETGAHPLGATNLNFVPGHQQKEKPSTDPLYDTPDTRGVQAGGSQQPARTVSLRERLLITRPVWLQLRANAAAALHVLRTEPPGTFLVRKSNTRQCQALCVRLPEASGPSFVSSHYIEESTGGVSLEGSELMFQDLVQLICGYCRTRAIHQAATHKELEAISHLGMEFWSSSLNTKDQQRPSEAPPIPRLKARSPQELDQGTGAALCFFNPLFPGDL

[4] = biological target: T1, Ras and Rab interactor 1 (RIN1), endogenous (mouse (endogenous in spinal cord dorsal horn)); assay: co-IP; anti-RIN1 antibody with lysates of mouse spinal cord dorsal horn in RIPA buffer, overnight at 4°C; Protein A/G-Agarose beads; immunoblot

GluN2A subunit of NMDA receptors, endogenous (from UniProt P35436 23-1464)
binding [1]: binds
binding [2]: binds
binding [3]: binds
binding [4]: binds

GluN2B subunit of NMDA receptors, endogenous (from UniProt Q01097 27-1482)
binding [1]: no binding
binding [4]: no binding
